Measured values: PubChem BioAssay AID1671193 (National Center for Advancing Translational Sciences (NCATS), 2021)
Among all 150,000 compounds or so, about 180 (0.12%) were called active. This list was built around the results that the source calls inconclusive (neither active nor inactive); the mix of calls is not that of the screen. Calls follow the shape of the dose curve; as a rule, active = well fitted cell-killing curve with a large enough effect; inconclusive = small, poorly fitted or top-dose-only effect, or effect the other way; inactive = flat fitted curve, though single readings scatter. Potencies of inconclusive entries are doubtful fits and often do not repeat.

Assay: GF-AFC viability counterscreen for inhibitors of alpha-synuclein gene (SNCA) expression; also: nearly all actives have a fitted effect of over 30% in size
Conditions: HEK-293-SNCA-luc viability, GF-AFC fluorescence, 24 h; series mostly up to 57.1 µM
Method in brief: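 Cytotoxicity counterscreen: after 24 h compound treatment of genome-edited SNCA-luciferase HEK-293 cells, live-cell protease substrate GF-AFC read by fluorescence after 30 min; activity scaled between DMSO (0%) and medium-only (-100%), curves Hill-fitted.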
Potency is read from the fitted curve at half-maximal effect; tags tell the direction and shape of the fitted curve.

SMILES | Potency
COc1cc2nc(Nc3ccc(C)c(C)c3)nc(N)c2cc1OC | inconclusive: 39.8 µM [cytotoxic, single point]
CCOC(=O)c1ccc(NC(=O)Cn2cc(C(=O)c3cccs3)c3ccccc32)cc1 | inconclusive: 17.8 µM [cytotoxic, partial curve]
CCCCn1c(=O)c(C(=O)N2CCC(c3ccccc3)CC2)nc2cccnc21 | inactive
c1ccc(-c2ccc(N3CCCC4(CCNCC4)C3)cc2)cc1 | inconclusive: 39.8 µM [cytotoxic, single point]
COc1ccc(NC(=O)Cn2c(=O)n(-c3ccc(C)c(C)c3)c(=O)c3c4c(sc32)CCCCC4)cc1Cl | inconclusive: 15.8 µM [rising, partial curve, poor fit]
CCS(=O)(=O)N1C[C@@H](C(=O)NCc2cccc(F)c2)[C@H](c2ccncc2)C1 | inconclusive: 35.5 µM [cytotoxic, single point]
Cc1ccc(CN2CCCC23Cc2ccccc2CNC3=O)cc1 (stereo not drawn) | inactive
Cc1ccc(-n2ncc(C(=O)N3CCN(C(=O)c4ccco4)CC3)c2C2CCN(C(=O)OC(C)(C)C)CC2)cc1 | inactive
COc1ccc(CCNC(=O)CCCn2c(=O)c3ccccc3n(CC(=O)Nc3ccc(C)cc3Cl)c2=O)cc1OC | inconclusive: 0.199 µM [cytotoxic, full curve, poor fit]
O=C(NC1CCN(Cc2ccccc2)CC1)c1cc2n(n1)CC(c1ccc3c(c1)OCO3)OC2 (stereo not drawn) | inactive
CC(C)(C)OC(=O)N1CCCC(n2c(=O)[nH]c3cccnc32)C1 (stereo not drawn) | inconclusive: 11.2 µM [rising, single point]
c1ccc(Oc2cc3c(cn2)NCCN(Cc2ccc4[nH]ccc4c2)C3)cc1 | inactive
O=C1CC(c2ccccc2)N(Cc2ccccn2)CCCCCN1 (stereo not drawn) | inconclusive: 3.55 µM [cytotoxic, single point]
COc1ccc(-n2c(=O)c3c(n2Cc2ccccc2)CN(C(=O)C2CCC(OC)CC2)CC3)cc1 (stereo not drawn) | inactive
CC(C)c1ccc(CC(=O)N2CCCc3ncc(C(=O)Nc4ccccn4)cc32)cc1 | inconclusive: 35.5 µM [cytotoxic, single point]
CN(c1ccccc1CNc1nc(Nc2ccc3c(c2)CC(=O)N3)ncc1C(F)(F)F)S(C)(=O)=O | inconclusive: 3.77 µM [cytotoxic, partial curve]
CC(C)CN(Cc1cccnc1)C1CN(C(=O)CC2CCCCC2)C1 | inactive
CCC(C)(NC(=O)C(CCC(N)=O)NC(=O)C1CC(O)CN1C(=O)C(C)(C)NC(=O)C(C)(C)NC(=O)C(CC(C)C)NC(=O)CNC(=O)C(NC(=O)C(C)(C)NC(=O)C(C)(C)NC(=O)C(C)(C)NC(=O)C(Cc1ccccc1)NC(C)=O)C(C)C)C(=O)N1CC(O)CC1C(=O)NC(C)(C)C(=O)NC(CO)Cc1ccccc1 (stereo not drawn) | inconclusive: 1.42 µM [cytotoxic, single point]
